The source of these data is the BET-seq Pho4 binding data (Le et al. 2018).

This is one part of the list. The energies were worked out here from pooled read counts, against the library average; single values are noisy.

For the experiment, the target named is T1, Pho4 (S. cerevisiae) (UniProt P07270).
T1 sequence: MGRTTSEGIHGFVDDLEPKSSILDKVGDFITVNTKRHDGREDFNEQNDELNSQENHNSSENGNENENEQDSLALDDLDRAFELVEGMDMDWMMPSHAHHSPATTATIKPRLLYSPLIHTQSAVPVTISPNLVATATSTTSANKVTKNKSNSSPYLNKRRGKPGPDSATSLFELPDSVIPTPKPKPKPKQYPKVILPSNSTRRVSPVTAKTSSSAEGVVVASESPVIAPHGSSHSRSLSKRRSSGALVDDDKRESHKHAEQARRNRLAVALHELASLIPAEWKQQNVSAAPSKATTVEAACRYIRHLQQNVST
Briefly: relative binding free energy (BET-seq); higher = weaker binding. Particulars: reference: library average.
With TGTCCCACGTGTGATG, the “relative binding free energy” value was 0.06 kcal/mol. Turning to AGTTCCACGTGGGTGA, the “relative binding free energy” value is -0.04 kcal/mol.

Turning to CTGTGCACGTGCGTCG, the “relative binding free energy” value was determined as 0.04 kcal/mol.

Take TATGGCACGTGCCGTA: the “relative binding free energy” value was determined as 0.01 kcal/mol. With GCGTGCACGTGAAGAG, the “relative binding free energy” value was 0.23 kcal/mol. For TATGTCACGTGCAATG, the “relative binding free energy” value turned out to be 0.15 kcal/mol. To TTGGTCACGTGGCATT belongs 0 kcal/mol; to CGGCTCACGTGTGATG, 0.42 kcal/mol.

TGCTTCACGTGTCAGG: the “relative binding free energy” value stood at 0.22 kcal/mol. The figure for CGGGCCACGTGTAGTT is -0.05 kcal/mol; for TGACGCACGTGTTGGG it is -0.04 kcal/mol. For the sequence GGTTACACGTGTTACT, the “relative binding free energy” value is 0.21 kcal/mol. Consider AATATCACGTGGGCGT, for which the “relative binding free energy” value is -0.04 kcal/mol. For AATTTCACGTGTTCGG, the “relative binding free energy” value turned out to be 0.29 kcal/mol.

With GATGTCACGTGTTAAT, the “relative binding free energy” value was determined as 0.17 kcal/mol.

Consider GTTGACACGTGGTAGA, for which the “relative binding free energy” value is -0.05 kcal/mol.

Take GTCGTCACGTGGGAAT: the “relative binding free energy” value was 0.17 kcal/mol. The figure for GGCGACACGTGAGTGG is 0.29 kcal/mol. The figure for TTAGGCACGTGGTAGC is -0.15 kcal/mol; for ACTGGCACGTGAGGGA it is 0.12 kcal/mol; for CCTTTCACGTGAGTTT it is 0.37 kcal/mol.

Regarding AATTACACGTGTAGGA, the “relative binding free energy” value stood at 0.18 kcal/mol. Regarding GTAGTCACGTGTTGTC, the “relative binding free energy” value was 0.16 kcal/mol. With TTGTTCACGTGATTCT, the “relative binding free energy” value stood at 0.34 kcal/mol. In the case of TTCAACACGTGGGTGT, the “relative binding free energy” value was -0.16 kcal/mol. The figure for TGTCGCACGTGGTGGT is -0.2 kcal/mol. For the sequence GCGTGCACGTGACTGG, the “relative binding free energy” value was found to be 0.12 kcal/mol. As to GCCGGCACGTGTTGTG, the “relative binding free energy” value is -0.05 kcal/mol.

Take GAGTTCACGTGTTATA: the “relative binding free energy” value was 0.27 kcal/mol.

On to AGTGTCACGTGGCTTG, for which the “relative binding free energy” value came to 0.02 kcal/mol.

On to TATTTCACGTGATTGC, for which the “relative binding free energy” value was 0.26 kcal/mol. For TTACACACGTGGGTTT, the “relative binding free energy” value was -0.09 kcal/mol.

Take GGGGACACGTGCTGCG: the “relative binding free energy” value is 0.04 kcal/mol. Turning to GTGGACACGTGTGCTA, the “relative binding free energy” value came out at 0.06 kcal/mol. As for GGTTTCACGTGAATGG, the “relative binding free energy” value is 0.43 kcal/mol. In the case of AGGTGCACGTGTTCAA, the “relative binding free energy” value was -0.06 kcal/mol. Regarding AAGATCACGTGTGCTG, the “relative binding free energy” value turned out to be 0.15 kcal/mol. GTCGGCACGTGTGTGG: the “relative binding free energy” value was 0.06 kcal/mol. The figure for TGGTGCACGTGAGCAT is 0.24 kcal/mol; for TAGGTCACGTGCATGA it is 0.08 kcal/mol. As to CCAGTCACGTGGTGGG, the “relative binding free energy” value is -0.06 kcal/mol. To TGCTGCACGTGCAGTG belongs -0.11 kcal/mol.

AACGGCACGTGGGTCT: the “relative binding free energy” value is -0.12 kcal/mol.

On to CGGTGCACGTGTGGGG, for which the “relative binding free energy” value is 0.08 kcal/mol.

On to TAGATCACGTGTGGAG, for which the “relative binding free energy” value is 0.18 kcal/mol. TAAGTCACGTGATACG: the “relative binding free energy” value is 0.26 kcal/mol. As to CGTCACACGTGGGGAG, the “relative binding free energy” value amounted to 0 kcal/mol. In the case of GGCGACACGTGTCGGT, the “relative binding free energy” value came to 0.16 kcal/mol. Turning to GATGTCACGTGGATAA, the “relative binding free energy” value worked out at 0.18 kcal/mol. GTCTTCACGTGTGGAT: the “relative binding free energy” value stood at 0.39 kcal/mol. In the case of GAAGTCACGTGTGGGA, the “relative binding free energy” value was 0.16 kcal/mol.

Consider ATTGTCACGTGTGGAA, for which the “relative binding free energy” value stood at 0.2 kcal/mol. Turning to TGGGTCACGTGCCTGG, the “relative binding free energy” value was found to be 0 kcal/mol.

Regarding TGGAACACGTGAGGGT, the “relative binding free energy” value came out at 0.22 kcal/mol. As to TGGGCCACGTGTAAGG, the “relative binding free energy” value was -0.07 kcal/mol. On to CAGGGCACGTGTTGTG, for which the “relative binding free energy” value is -0.17 kcal/mol. As for AGGGGCACGTGCGCGC, the “relative binding free energy” value is -0.25 kcal/mol.
